Laboratory results as given in PubChem BioAssay AID652104 (National Center for Advancing Translational Sciences (NCATS), 2013).
Screen size: about 410,000 compounds; about 7,200 (1.8%) were called active. This list was built around the results that the source calls inconclusive (neither active nor inactive); the mix of calls is not that of the screen. Calls follow the shape of the dose curve; as a rule, active = well fitted activation curve with a large enough effect; inconclusive = small, poorly fitted or top-dose-only effect, or another doubt; inactive = no such curve, though single readings can be large or run the other way. A potency beside an inconclusive call is a rough fit, not a confirmed value.

Assay: qHTS of TDP-43 Inhibitors; also: nearly all actives have a fitted effect of over 50% in size
Conditions: TDP-43 expressing yeast growth rescue, BacTiter-Glo, 24 h; series mostly up to 46.1 µM
How it was run: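 Yeast expressing TDP-43 (pregrown in raffinose, seeded at OD600=0.02 in galactose medium) exposed to compounds 24 hr at 30 deg C. Growth read by BacTiter-Glo luminescence; rescue of toxicity appears as increased signal.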
Potency is read from the fitted curve at half-maximal effect; tags tell the direction and shape of the fitted curve.

Potency, inactive:
CN(C)S(=O)(=O)c1cccc(NC(=S)NNC(=O)c2cc3ccccc3cc2O)c1
C=CCSc1nnc(-c2ccncc2)n1-c1ccc(OCC)cc1
Cc1c(Cl)cccc1NC(=O)N1CCC(CN2CCCC2)CC1
CSc1ccc(CNC(=O)CCn2ccc3cc(S(=O)(=O)N4CCC(C)CC4)ccc32)cc1
CCOC(=O)C1=C(C)NC2=C(C(=O)C(C(=O)OCC)C(c3ccco3)C2)C1c1ccccn1 (centres undefined)
CCc1nc2ccc(C(=O)N(C)Cc3ccco3)cn2c1N(CC)Cc1cccc(Br)c1
CCOC(=O)c1[nH]c2ccccc2c1NC(=O)COC
O=C(N/N=C/c1cn(-c2ccccc2)nc1-c1cc2ccccc2o1)c1ccccc1Br
O=C(O)c1cc(N2C(=O)C3C4C=CC(C4)C3C2=O)ccc1NCc1cccnc1 (centres undefined)
Cc1ccc(S(=O)(=O)N(CC(=O)Nc2ccc(C(C)C)cc2)Cc2ccccc2)cc1
Cc1cc(OCc2nc(-c3cccnc3)no2)c(C)cc1Br

Potency, active:
CCc1ccc(NC(=O)c2cc(S(=O)(=O)NC3CCCC3)ccc2F)cc1 20 µM
O=C1COc2ccccc2N1Cc1c(F)cccc1Cl 11.2 µM
COc1ccc(OC)c(-c2csc(NC(=O)Cc3ccccc3OC)n2)c1 10 µM

Potency, inconclusive:
CCCc1nc2sc3c(c2c(=O)[nH]1)CCCC3 25.1 µM [activator, single point]
COc1ccc(OC)c(NC(=O)CSc2nc(N3CCOCC3)nc(N3CCOCC3)n2)c1 1.26 µM [activator, full curve, poor fit]
CCc1nc(Nc2ccc(F)cc2)c2oc3ccccc3c2n1 35.5 µM [activator, single point]
Cc1cc(C)n(-c2nncc(-c3ccccc3)n2)n1 11.2 µM [activator, single point]
COc1ccccc1C(=O)NC(=S)Nc1cccc2cc(O)ccc12 6.31 µM [activator, partial curve]
COCCCNC(=O)Cn1c(=O)n(Cc2ccc(C(=O)NCc3ccc(C)cc3)cc2)c(=O)c2ccccc21 0.501 µM [activator, full curve, poor fit]
COc1ccccc1CNS(=O)(=O)c1ccc2[nH]c3c(c2c1)CCCCC3 10 µM [activator, partial curve, poor fit]
O=C(Nc1ccc(Cl)cc1)N1CC=CCC1 14.1 µM [activator, single point]
O=C(NC(=S)NCc1ccc(Cl)cc1)c1ccco1 14.1 µM [activator, single point]
CCc1noc(C)c1C(=O)NCCc1c[nH]c2ccccc12 22.4 µM [activator, partial curve, poor fit]
COC(=O)c1c(C(=O)OC)c2oc3ccccc3n2c1Cl 11.2 µM [activator, partial curve]
CCC(=O)Nc1ccc(-c2ccc(N3CCC(C)CC3)nn2)cc1 0.562 µM [activator, full curve]
Cc1ccc(S(=O)(=O)NCCC2=CCCCC2)cc1 10 µM [activator, partial curve]
CCC(C)c1ccc(OCC(=O)Nc2cccc(-c3nc4ncccc4o3)c2)cc1 (centres undefined) 25.1 µM [activator, single point]
Clc1ccc(CSc2nnc(NC3=NCCCCC3)s2)cc1 35.5 µM [activator, single point]
CCOc1ccc(OCc2ccc(C(=O)N3CCCC(C)C3)cc2)cc1 (centres undefined) 35.5 µM [activator, partial curve]
Cc1ccc(S(=O)(=O)NN=Cc2ccc(N3CCOCC3)cc2)cc1[N+](=O)[O-] 22.4 µM [activator, partial curve]
NC1(C(=O)O)CSSC1 25.1 µM [activator, partial curve]
Cc1cccc(N2C(=O)C3CCC(c4ccccc4)CC3C2=O)c1 (centres undefined) 14.1 µM [activator, single point]
CC1Cc2nc(SCC(=O)Nc3nc4ccccc4s3)n(C)c(=O)c2S1 (centres undefined) 14.1 µM [activator, partial curve]
CCOC(=O)c1[nH]c2ccccc2c1NC(=O)c1ccccc1OCC 4.47 µM [activator, full curve]
Cc1cc(C(F)(F)F)c2c(N)c(C(=O)NCc3ccc(Cl)cc3)sc2n1 7.94 µM [activator, partial curve]
CCOC(=O)C1CCN(C(=O)c2cc3ccc4cccnc4c3[nH]2)CC1 8.91 µM [activator, partial curve, poor fit]
Cc1ccc(Cc2c(-c3cccc(Cl)c3)nc3ccc(Br)cn23)cc1 17.8 µM [activator, partial curve]
CC(=O)c1cccc(NC(=S)N2CCc3ccccc32)c1 7.94 µM [activator, partial curve]
CCCNC(=O)c1ccc2c(c1)N=C(C)c1c(C)ccc(C)c1S2 25.1 µM [activator, single point]
CCOCCCNC(=O)C(Cc1ccccc1)NS(=O)(=O)c1cccc2nsnc12 (centres undefined) 12.6 µM [activator, partial curve]
Cc1cccc(N2CCN(C(=O)c3ccc4nc(-c5ccco5)c(-c5ccco5)nc4c3)CC2C)c1 (centres undefined) 28.2 µM [activator, single point]
O=C(Nc1ccccc1F)c1nc(S(=O)(=O)Cc2ccccc2F)ncc1Cl 2.24 µM [activator, partial curve]
CCn1c(=O)c(=O)[nH]c2cc(C(=O)NC3CC3)ccc21 10 µM [activator, partial curve, poor fit]
